Measurements reported in paper PMC11024108.

How the values were obtained:
Test in all cases: cross-link between two proteins; cross-linking mass spectrometry
[1] = biological target: T1, 26S proteasome non-ATPase regulatory subunit 1 (UniProt Q3TXS7)
T1 sequence: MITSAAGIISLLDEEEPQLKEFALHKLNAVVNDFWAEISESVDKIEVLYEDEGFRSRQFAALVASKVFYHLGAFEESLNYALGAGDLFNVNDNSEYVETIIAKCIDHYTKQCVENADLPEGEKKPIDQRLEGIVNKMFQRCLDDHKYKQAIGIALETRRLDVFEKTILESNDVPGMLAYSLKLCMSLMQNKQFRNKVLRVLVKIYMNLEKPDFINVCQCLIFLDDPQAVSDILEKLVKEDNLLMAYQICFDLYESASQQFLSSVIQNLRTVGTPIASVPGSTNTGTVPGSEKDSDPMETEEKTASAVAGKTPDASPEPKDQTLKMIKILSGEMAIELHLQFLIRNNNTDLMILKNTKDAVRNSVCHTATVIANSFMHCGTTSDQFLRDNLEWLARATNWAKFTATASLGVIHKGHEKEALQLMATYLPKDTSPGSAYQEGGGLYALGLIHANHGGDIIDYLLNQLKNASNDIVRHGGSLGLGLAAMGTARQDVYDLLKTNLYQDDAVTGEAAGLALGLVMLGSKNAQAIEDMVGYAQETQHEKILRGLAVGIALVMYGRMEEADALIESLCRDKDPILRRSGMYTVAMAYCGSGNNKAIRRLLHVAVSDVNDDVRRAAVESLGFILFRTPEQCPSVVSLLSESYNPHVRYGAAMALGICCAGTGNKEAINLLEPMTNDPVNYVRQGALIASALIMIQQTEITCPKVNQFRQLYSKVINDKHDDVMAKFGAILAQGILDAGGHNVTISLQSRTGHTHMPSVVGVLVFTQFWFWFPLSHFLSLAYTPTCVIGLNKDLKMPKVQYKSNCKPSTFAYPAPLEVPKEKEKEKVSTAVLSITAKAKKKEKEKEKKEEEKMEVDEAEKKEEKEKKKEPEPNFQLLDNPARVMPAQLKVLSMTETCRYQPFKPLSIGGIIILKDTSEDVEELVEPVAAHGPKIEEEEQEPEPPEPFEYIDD

Renin receptor = Renin receptor (UniProt Q9CYN9)
Sequence of UniProt Q9CYN9 (Q9CYN9 whole entry): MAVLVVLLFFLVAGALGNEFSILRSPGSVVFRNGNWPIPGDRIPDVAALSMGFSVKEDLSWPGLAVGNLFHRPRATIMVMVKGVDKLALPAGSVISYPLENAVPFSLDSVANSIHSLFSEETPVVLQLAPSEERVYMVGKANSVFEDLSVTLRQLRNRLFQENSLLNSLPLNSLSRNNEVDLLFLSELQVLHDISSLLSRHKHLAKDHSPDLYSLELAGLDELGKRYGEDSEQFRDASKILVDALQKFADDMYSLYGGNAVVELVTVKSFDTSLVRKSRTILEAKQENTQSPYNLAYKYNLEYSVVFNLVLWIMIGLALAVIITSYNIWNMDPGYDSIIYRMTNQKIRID

[2] = biological target: V-type proton ATPase 116 kDa subunit a 1 (UniProt Q9Z1G4)
Sequence of UniProt Q9Z1G4 (Q9Z1G4 whole entry): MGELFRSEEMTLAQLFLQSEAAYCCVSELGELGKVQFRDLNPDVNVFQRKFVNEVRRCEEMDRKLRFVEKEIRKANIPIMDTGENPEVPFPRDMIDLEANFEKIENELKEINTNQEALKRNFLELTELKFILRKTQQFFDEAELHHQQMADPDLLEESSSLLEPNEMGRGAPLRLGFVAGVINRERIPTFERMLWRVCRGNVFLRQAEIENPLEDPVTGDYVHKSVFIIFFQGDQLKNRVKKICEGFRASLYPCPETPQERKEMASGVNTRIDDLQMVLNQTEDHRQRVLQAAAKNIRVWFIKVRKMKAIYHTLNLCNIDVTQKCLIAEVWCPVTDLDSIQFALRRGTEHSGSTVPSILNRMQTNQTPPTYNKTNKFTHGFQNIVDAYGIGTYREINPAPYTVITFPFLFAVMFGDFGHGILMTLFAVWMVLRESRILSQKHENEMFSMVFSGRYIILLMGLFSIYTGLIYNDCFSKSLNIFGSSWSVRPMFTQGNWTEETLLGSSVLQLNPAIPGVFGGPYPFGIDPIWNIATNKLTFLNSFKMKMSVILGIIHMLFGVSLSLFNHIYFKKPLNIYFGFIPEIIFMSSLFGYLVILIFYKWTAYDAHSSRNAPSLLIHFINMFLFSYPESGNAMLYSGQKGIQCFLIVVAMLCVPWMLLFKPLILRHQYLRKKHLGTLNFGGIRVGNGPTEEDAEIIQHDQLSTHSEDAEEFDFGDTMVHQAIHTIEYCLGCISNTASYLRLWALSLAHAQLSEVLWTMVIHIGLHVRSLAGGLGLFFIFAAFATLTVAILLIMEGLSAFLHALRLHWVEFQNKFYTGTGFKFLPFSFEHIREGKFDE

[3] = biological target: Solute carrier family 25 member 3 (UniProt Q00325)
Sequence of UniProt Q00325 (Q00325 whole entry): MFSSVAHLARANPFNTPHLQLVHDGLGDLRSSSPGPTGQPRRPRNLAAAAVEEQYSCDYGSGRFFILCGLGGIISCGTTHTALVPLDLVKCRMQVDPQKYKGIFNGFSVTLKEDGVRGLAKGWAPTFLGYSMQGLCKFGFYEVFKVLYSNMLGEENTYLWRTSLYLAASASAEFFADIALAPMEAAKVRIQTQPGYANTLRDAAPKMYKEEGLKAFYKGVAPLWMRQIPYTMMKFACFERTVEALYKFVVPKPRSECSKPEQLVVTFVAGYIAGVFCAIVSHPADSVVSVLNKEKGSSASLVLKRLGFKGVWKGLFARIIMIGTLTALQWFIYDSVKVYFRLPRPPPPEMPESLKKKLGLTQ

Sequence of V-type proton ATPase subunit d 1 (chain, as listed by the source): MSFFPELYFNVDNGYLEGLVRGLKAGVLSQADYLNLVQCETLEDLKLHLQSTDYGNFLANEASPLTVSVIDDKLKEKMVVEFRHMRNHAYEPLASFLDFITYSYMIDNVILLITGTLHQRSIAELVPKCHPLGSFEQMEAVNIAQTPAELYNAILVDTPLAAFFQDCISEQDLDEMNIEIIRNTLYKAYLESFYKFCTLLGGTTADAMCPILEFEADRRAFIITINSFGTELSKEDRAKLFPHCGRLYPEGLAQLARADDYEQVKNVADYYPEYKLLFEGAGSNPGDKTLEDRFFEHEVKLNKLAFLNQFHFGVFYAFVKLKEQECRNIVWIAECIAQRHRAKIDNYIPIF
Sequence of 26S proteasome regulatory subunit 8 (chain, as listed by the source): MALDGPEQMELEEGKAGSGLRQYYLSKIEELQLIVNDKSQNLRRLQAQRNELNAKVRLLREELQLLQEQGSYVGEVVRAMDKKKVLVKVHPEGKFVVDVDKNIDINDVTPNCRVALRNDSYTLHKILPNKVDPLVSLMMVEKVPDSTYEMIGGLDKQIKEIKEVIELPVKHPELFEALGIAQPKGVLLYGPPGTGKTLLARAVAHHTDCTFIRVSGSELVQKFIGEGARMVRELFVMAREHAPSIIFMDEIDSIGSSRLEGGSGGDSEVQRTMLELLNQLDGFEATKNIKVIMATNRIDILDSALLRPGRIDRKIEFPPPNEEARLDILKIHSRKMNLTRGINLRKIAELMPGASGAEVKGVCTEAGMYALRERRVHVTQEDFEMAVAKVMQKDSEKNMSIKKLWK
Sequence of Cytochrome c oxidase subunit 4 isoform 1, mitochondrial (chain, as listed by the source): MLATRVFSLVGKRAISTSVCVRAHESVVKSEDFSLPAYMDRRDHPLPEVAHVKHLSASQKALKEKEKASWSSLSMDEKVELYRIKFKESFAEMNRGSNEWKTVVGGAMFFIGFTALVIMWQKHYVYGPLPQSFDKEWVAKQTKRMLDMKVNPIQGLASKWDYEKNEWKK

26S proteasome regulatory subunit 8
listed as a hit [1]: yes

V-type proton ATPase subunit d 1
listed as a hit (Renin receptor): yes
listed as a hit [2]: yes

Cytochrome c oxidase subunit 4 isoform 1, mitochondrial
listed as a hit [3]: yes
